Experimental data as given in publication PMC12820563.
The list shows a part of the results. The list includes weakly bound sequences.

target: T1, MBP-FoxP3dN (UniProt Q99JB6); assay: PD-seq (MBP pull-down with sequencing); conditions: 20 mM Tris-HCl pH 7.5, 100 mM NaCl, 1.5 mM MgCl2, 0.4 uM protein, 0.1 uM dsDNA library, 30 min, room temperature, amylose pull-down; high values mean tight binding; double strand, one strand shown
T1 sequence: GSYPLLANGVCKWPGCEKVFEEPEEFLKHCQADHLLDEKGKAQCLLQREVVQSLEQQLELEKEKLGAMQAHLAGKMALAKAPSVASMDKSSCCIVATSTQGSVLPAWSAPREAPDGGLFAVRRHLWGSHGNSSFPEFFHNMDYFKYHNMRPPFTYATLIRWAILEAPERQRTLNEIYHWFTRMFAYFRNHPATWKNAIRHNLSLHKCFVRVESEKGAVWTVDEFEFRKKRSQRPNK

Row | Sequence | binding signal (RPM ratio (pull-down/input))
1 | GATGATTGTTCTCCCAGCTGATGAATTTCAGGGATCGAGTAAACAAATTTTCCTAATCTTTCTGTTCAAGCGCCATCTAC | 0.202
2 | GATGATTGTTCTCCCAGCTGATGAATTGAGTATTTCGAGTAAACAAATTTTCCTAATCTTTCTGTTCAAGCGCCATCTAC | 1.95
3 | GATGATTGTTCTCCCAGCTGATGAATTTACTCGGTCGAGTAAACAAATTTTCCTAATCTTTCTGTTCAAGCGCCATCTAC | 0.312
4 | GATGATTGTTCTCCCAGCTGATGAATTGTACCCCTCGAGTAAACAAATTTTCCTAATCTTTCTGTTCAAGCGCCATCTAC | 0.423
5 | GATGATTGTTCTCCCAGCTGATGAATTAGATTCTTCGAGTAAACAAATTTTCCTAATCTTTCTGTTCAAGCGCCATCTAC | 0.655
6 | GATGATTGTTCTCCCAGCTGATGAATTGTTGACATCGAGTAAACAAATTTTCCTAATCTTTCTGTTCAAGCGCCATCTAC | 5.72
7 | GATGATTGTTCTCCCAGCTGATGAATTTCTCACGTCGAGTAAACAAATTTTCCTAATCTTTCTGTTCAAGCGCCATCTAC | 0.298
8 | GATGATTGTTCTCCCAGCTGATGAATTTATCAAATCGAGTAAACAAATTTTCCTAATCTTTCTGTTCAAGCGCCATCTAC | 0.456
9 | GATGATTGTTCTCCCAGCTGATGAATTCGATCGCTCGAGTAAACAAATTTTCCTAATCTTTCTGTTCAAGCGCCATCTAC | 0.339
10 | GATGATTGTTCTCCCAGCTGATGAATTATCGTCTTCGAGTAAACAAATTTTCCTAATCTTTCTGTTCAAGCGCCATCTAC | 0.527
11 | GATGATTGTTCTCCCAGCTGATGAATTGATTCGGTCGAGTAAACAAATTTTCCTAATCTTTCTGTTCAAGCGCCATCTAC | 0.336
12 | GATGATTGTTCTCCCAGCTGATGAATTCTTAGCGTCGAGTAAACAAATTTTCCTAATCTTTCTGTTCAAGCGCCATCTAC | 0.407
13 | GATGATTGTTCTCCCAGCTGATGAATTTGACACTTCGAGTAAACAAATTTTCCTAATCTTTCTGTTCAAGCGCCATCTAC | 1.55
14 | GATGATTGTTCTCCCAGCTGATGAATTACGAGGCTCGAGTAAACAAATTTTCCTAATCTTTCTGTTCAAGCGCCATCTAC | 0.562
15 | GATGATTGTTCTCCCAGCTGATGAATTTTTCCCGTCGAGTAAACAAATTTTCCTAATCTTTCTGTTCAAGCGCCATCTAC | 0.171
16 | GATGATTGTTCTCCCAGCTGATGAATTATGAAAGTCGAGTAAACAAATTTTCCTAATCTTTCTGTTCAAGCGCCATCTAC | 0.265
17 | GATGATTGTTCTCCCAGCTGATGAATTGGTCCCATCGAGTAAACAAATTTTCCTAATCTTTCTGTTCAAGCGCCATCTAC | 0.435
18 | GATGATTGTTCTCCCAGCTGATGAATTCGCTAAATCGAGTAAACAAATTTTCCTAATCTTTCTGTTCAAGCGCCATCTAC | 0.218
19 | GATGATTGTTCTCCCAGCTGATGAATTGAATCTCTCGAGTAAACAAATTTTCCTAATCTTTCTGTTCAAGCGCCATCTAC | 0.429
20 | GATGATTGTTCTCCCAGCTGATGAATTAATTGACTCGAGTAAACAAATTTTCCTAATCTTTCTGTTCAAGCGCCATCTAC | 2.9

Row | Sequence | binding signal (RPM ratio (pull-down/input))
21 | GATGATTGTTCTCCCAGCTGATGAATTAAACCGGTCGAGTAAACAAATTTTCCTAATCTTTCTGTTCAAGCGCCATCTAC | 0.248
22 | GATGATTGTTCTCCCAGCTGATGAATTCTGATGTTCGAGTAAACAAATTTTCCTAATCTTTCTGTTCAAGCGCCATCTAC | 2.93
23 | GATGATTGTTCTCCCAGCTGATGAATTCGTGCACTCGAGTAAACAAATTTTCCTAATCTTTCTGTTCAAGCGCCATCTAC | 0.773
24 | GATGATTGTTCTCCCAGCTGATGAATTGGCTTTCTCGAGTAAACAAATTTTCCTAATCTTTCTGTTCAAGCGCCATCTAC | 1.76
25 | GATGATTGTTCTCCCAGCTGATGAATTTTCTTTTTCGAGTAAACAAATTTTCCTAATCTTTCTGTTCAAGCGCCATCTAC | 0.645
26 | GATGATTGTTCTCCCAGCTGATGAATTACTAAGGTCGAGTAAACAAATTTTCCTAATCTTTCTGTTCAAGCGCCATCTAC | 0.254
27 | GATGATTGTTCTCCCAGCTGATGAATTATGTACGTCGAGTAAACAAATTTTCCTAATCTTTCTGTTCAAGCGCCATCTAC | 1.34
28 | GATGATTGTTCTCCCAGCTGATGAATTGGCCGGCTCGAGTAAACAAATTTTCCTAATCTTTCTGTTCAAGCGCCATCTAC | 0.201
29 | GATGATTGTTCTCCCAGCTGATGAATTACCAGTATCGAGTAAACAAATTTTCCTAATCTTTCTGTTCAAGCGCCATCTAC | 0.478
30 | GATGATTGTTCTCCCAGCTGATGAATTCGACCGCTCGAGTAAACAAATTTTCCTAATCTTTCTGTTCAAGCGCCATCTAC | 0.259
31 | GATGATTGTTCTCCCAGCTGATGAATTGCCAACCTCGAGTAAACAAATTTTCCTAATCTTTCTGTTCAAGCGCCATCTAC | 0.476
32 | GATGATTGTTCTCCCAGCTGATGAATTTGGCCAATCGAGTAAACAAATTTTCCTAATCTTTCTGTTCAAGCGCCATCTAC | 0.65
33 | GATGATTGTTCTCCCAGCTGATGAATTTCTGAGGTCGAGTAAACAAATTTTCCTAATCTTTCTGTTCAAGCGCCATCTAC | 0.165
34 | GATGATTGTTCTCCCAGCTGATGAATTTCATCTGTCGAGTAAACAAATTTTCCTAATCTTTCTGTTCAAGCGCCATCTAC | 0.411
35 | GATGATTGTTCTCCCAGCTGATGAATTTTTTGGATCGAGTAAACAAATTTTCCTAATCTTTCTGTTCAAGCGCCATCTAC | 0.192
36 | GATGATTGTTCTCCCAGCTGATGAATTACCTTGTTCGAGTAAACAAATTTTCCTAATCTTTCTGTTCAAGCGCCATCTAC | 0.403
37 | GATGATTGTTCTCCCAGCTGATGAATTGTAAACATCGAGTAAACAAATTTTCCTAATCTTTCTGTTCAAGCGCCATCTAC | 5.2
38 | GATGATTGTTCTCCCAGCTGATGAATTGTACAAGTCGAGTAAACAAATTTTCCTAATCTTTCTGTTCAAGCGCCATCTAC | 0.305
39 | GATGATTGTTCTCCCAGCTGATGAATTACTTAGTTCGAGTAAACAAATTTTCCTAATCTTTCTGTTCAAGCGCCATCTAC | 0.432
40 | GATGATTGTTCTCCCAGCTGATGAATTCGGTCTATCGAGTAAACAAATTTTCCTAATCTTTCTGTTCAAGCGCCATCTAC | 0.588
